The data set concerns ATP. As to the kind of experiment: switch fluorescence ratio, 500 uM ATP over buffer (Cy3 cluster intensity, sum of 5 cycles each) (fold (ratio)); higher = stronger signal-on switching upon ATP binding; sequences stand for … in TCGTCGGCAGCGTCAGATGTGTATAAGAGACAGTTTTTTTTTTTTTTTTTTTTTTTTT…TC. As to conditions: aptamer strand: ATP DNA aptamer (quencher-CACCTGGGGGAGTATTGCGGAGGAAGG + anchor), 100 nM annealed; ATP concentration: 500 uM; one replicate. In outline: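 Imaging in selection buffer was followed by imaging after 15 min with 500 uM ATP at 22 °C, for Cy3-labelled switching-strand clusters annealed to 100 nM quencher-labelled ATP aptamer on a modified Illumina MiSeq flow-cell. Five of these buffer/ATP cycles ran, separated by NaOH stripping and re-annealing. The fluorescence ratio per cluster is summed target-cycle over summed buffer-cycle Cy3 intensity, averaged per switch-domain sequence; clusters outside 100-1000 RFU were removed.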

Sequences with one replicate were seen in a single cluster, so their values are uncertain.

Among the data in the supplement of paper PMC10126150 are switch fluorescence ratio values, retold here.
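Note: ATP exposure 15 min at 22 °C before imaging.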

For CATTGATGCC, the switch fluorescence ratio stood at 1.09.
In the case of CTCTAAGTCA, the switch fluorescence ratio was found to be 0.993.
Then GCGAGTCACC, with 1.18; and CAACCTTTTG, with 1; and GTGTTGATGC, with 0.986.
Then AAGTGTTTGC, with 1.05; and CGTTAGGGAC, with 1.03.
In the case of CCCGGTCATG it was 0.999; in that of CGCCCTTTTG, 0.992; in that of CAAAAAAGCC, 1.06.
In the case of GAGGGAGTTA, the switch fluorescence ratio was found to be 0.972.
In the case of TTGTGGGA it was 0.999.
Then CATTTGTTGC, with 1.03; and GGGTAGCAAG, with 1; and CTAGGAACCG, with 1.04.
Then AGCTTGAAAG, with 0.967; and GCAGCACTTA, with 1.19; and GGAAGGTAGG, with 0.977.
On to CCCAATTATC, for which the switch fluorescence ratio came out at 1.57.
In the case of ATGAAGGAAT it was 0.985; in that of GCTGCCCTTC, 0.993; in that of GCCACATTTA, 0.982.
Then CTTTTTATTA, with 1; and ATTGTGTATT, with 0.959.
Regarding ATGGGGGCCC, the switch fluorescence ratio is 1.01.
Then GCATTTAAT, with 1.01; and CGTCTCGCTC, with 1.47.
Then ATTCGGATAT, with 0.996; and CCCAACGGCC, with 1.06.
For the sequence TTCAACGGGT, the switch fluorescence ratio was determined as 1.02.
Take CTGGTGTTCC: the switch fluorescence ratio amounted to 1.07.
In the case of TGCAGAAGCG it was 1.02.
In the case of GTAGTCCATG it was 0.987; in that of TCGTGTACAT, 0.991; in that of TTTCGCGGTG, 1.02.
Then ACGAGATTTC, with 1.02.
Regarding ACATGGATCC, the switch fluorescence ratio is 1.
Then TAGTATAGTA, with 1.01; and TGATTGGCTT, with 0.976; and ATCGACAAGA, with 0.991.
In the case of GATGTTTAGG it was 0.967.
Then CGCTATAACT, with 2.47.
On to GTTGGGTTGA, for which the switch fluorescence ratio came to 0.95.
In the case of GTAGTTCGGT it was 0.943; in that of CGTTAAAAGC, 1.01.
In the case of ACGGAATTCT it was 1.09.
TGCGGAGCTC: the switch fluorescence ratio came to 1.06.
Then GTCGCATTAT, with 1.23; and CTATAGGCGT, with 0.992.
For GCCGTAATGT, the switch fluorescence ratio worked out at 1.12.
In the case of GATTCTCTCT it was 1.03; in that of TAGCCGTCGG, 0.971; in that of CTTCATAAG, 0.953.
Then TAATTATAGG, with 0.998; and GTTTACCCTT, with 1.29.
Then TCGCGTAGAT, with 1.05; and GATGGGGGC, with 0.949; and TGCCCCGTCA, with 0.997.
Take GTGTGCTGGT: the switch fluorescence ratio turned out to be 0.963.
In the case of TTTCCCACTT it was 1.09.
With ACCTGGTAAC, the switch fluorescence ratio came out at 1.04.
Turning to AGCGACAGTT, the switch fluorescence ratio stood at 1.03.
Then GGATCCCACC, with 1.12; and GCGTCGGGCG, with 1.1.
In the case of GCGGTGTGTT it was 0.968; in that of ATGGCTGGGA, 0.957; in that of TCATCGCCGT, 1.06.
In the case of ATAAGTGAGA it was 1.02; in that of CATTTCTGGA, 0.976; in that of GTCAGTTGGT, 0.954.
For the sequence TAAGGTTCTA, the switch fluorescence ratio stood at 1.
AGCAAGGCTC: the switch fluorescence ratio stood at 3.
Then TGGACGCCAT, with 1.03.
In the case of CAGTGATGAA it was 0.999; in that of GATTGTCGTA, 0.967.
In the case of GCTACAATCG it was 1; in that of CGCCCCCCCT, 1.32; in that of AGATTCTCG, 0.981.
Take TATAAGTGCT: the switch fluorescence ratio was 0.985.
Then TTAGTTAGCT, with 1.
In the case of GCGCGGGAGA it was 1.06.
Then GGGGAGGATG, with 0.915.
As for TACCCAGTTG, the switch fluorescence ratio was 1.11.
In the case of TATCTCGTCG it was 1.02.
Then CACGGCACCG, with 1.24; and CAATTATTTA, with 1.01; and TTCGTCCAAT, with 1.08.
Then AGTAAGCTGT, with 1; and TAAGACGGTA, with 1.
Consider TTCTTTTGT, for which the switch fluorescence ratio turned out to be 0.961.
Take TAACTACCG: the switch fluorescence ratio was 1.05.
Then GGGGAACTAG, with 1.01; and TTTAGTAAGC, with 0.985.
As to AACGGGGAAA, the switch fluorescence ratio worked out at 1.01.
In the case of CCACAAGCTG it was 1.19; in that of GGGAAATTCT, 1.05; in that of AGAGTCCGAA, 1.01.
Then TACGCTAGAT, with 1.12.
Then AACACGGAGT, with 0.994.
For GGTTGCTTTG, the switch fluorescence ratio turned out to be 0.994.
Then GGCGACTCTG, with 1; and GCCGTGTCGA, with 1.01; and ACACAGTCGT, with 1.03.
Then GTGTCACGCG, with 1.07.
In the case of CGTTTTCAGT it was 0.993; in that of CCTTCTTAAT, 1.14; in that of TACCAGTGTC, 0.999.
With TTTACAGAAG, the switch fluorescence ratio was found to be 1.03.
Then GGGCATTAGC, with 1.03.
Then AGATATATCA, with 1.01.
Then GGAGATGATT, with 1.01.
On to GGATCAAATG, for which the switch fluorescence ratio came out at 1.02.
In the case of TGGTCAGTCT it was 0.976.
In the case of ATACGGTACG, the switch fluorescence ratio is 1.03.
In the case of CGGGATTAGG it was 0.99; in that of GGGTCCTAAC, 1.02.
In the case of GCCTATAGTT it was 0.964; in that of CTTGGCCAGG, 1.04.
Then TTGTGGGAT, with 1.04; and ACAAGATCCG, with 1.04.
